Reference: article PMC8363609
These are yes or no findings as the source states them, for the method shown. In cells and extracts the contact can be indirect. Some entries that bind do so weakly or less than the wild type. Tags and fused reporters may be left off the sequences shown.

What was measured:
[1] = molecular target: T1, GST-SUN5 193–373aa (UniProt Q9DA32); assay: pull-down; GST-tagged fragment from E. coli held on Glutathione Sepharose 4B, incubated with MBP-tagged fragment from E. coli at 4 °C for 2 h; washed with 50 mM Tris pH 7.4, 150 mM KCl, 2 mM MgCl2, 0.1% Triton X-100; immunoblot with anti-GST and anti-MBP; only the target purified
T1 sequence: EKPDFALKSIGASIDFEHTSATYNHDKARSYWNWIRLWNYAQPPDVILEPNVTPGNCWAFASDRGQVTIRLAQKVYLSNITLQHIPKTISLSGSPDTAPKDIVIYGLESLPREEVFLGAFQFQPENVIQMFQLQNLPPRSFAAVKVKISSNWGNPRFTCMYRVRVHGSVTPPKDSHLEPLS

[2] = molecular target: T2, GST-PMFBP1 750–1023aa (UniProt Q9WVQ0); assay: as above
T2 sequence: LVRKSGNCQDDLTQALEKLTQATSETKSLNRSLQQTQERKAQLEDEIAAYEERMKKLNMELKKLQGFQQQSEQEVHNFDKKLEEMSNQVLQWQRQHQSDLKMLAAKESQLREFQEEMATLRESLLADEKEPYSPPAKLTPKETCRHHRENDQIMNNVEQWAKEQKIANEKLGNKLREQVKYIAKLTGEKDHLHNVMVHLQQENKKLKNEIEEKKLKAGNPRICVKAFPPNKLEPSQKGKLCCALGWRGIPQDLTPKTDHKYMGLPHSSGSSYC

[3] = molecular target: T3, MYC-tagged CENTLEIN (mouse) (UniProt A2AM05); assay: co-IP; HEK293T cells co-transfected with two tagged plasmids, collected after 24 h; lysed in ELB buffer (50 mM HEPES, 250 mM NaCl, 0.1% NP-40); IP with anti-GFP, anti-FLAG or anti-MYC antibody and Dynabeads-protein-G at 4 °C; immunoblot for the tags
T3 sequence: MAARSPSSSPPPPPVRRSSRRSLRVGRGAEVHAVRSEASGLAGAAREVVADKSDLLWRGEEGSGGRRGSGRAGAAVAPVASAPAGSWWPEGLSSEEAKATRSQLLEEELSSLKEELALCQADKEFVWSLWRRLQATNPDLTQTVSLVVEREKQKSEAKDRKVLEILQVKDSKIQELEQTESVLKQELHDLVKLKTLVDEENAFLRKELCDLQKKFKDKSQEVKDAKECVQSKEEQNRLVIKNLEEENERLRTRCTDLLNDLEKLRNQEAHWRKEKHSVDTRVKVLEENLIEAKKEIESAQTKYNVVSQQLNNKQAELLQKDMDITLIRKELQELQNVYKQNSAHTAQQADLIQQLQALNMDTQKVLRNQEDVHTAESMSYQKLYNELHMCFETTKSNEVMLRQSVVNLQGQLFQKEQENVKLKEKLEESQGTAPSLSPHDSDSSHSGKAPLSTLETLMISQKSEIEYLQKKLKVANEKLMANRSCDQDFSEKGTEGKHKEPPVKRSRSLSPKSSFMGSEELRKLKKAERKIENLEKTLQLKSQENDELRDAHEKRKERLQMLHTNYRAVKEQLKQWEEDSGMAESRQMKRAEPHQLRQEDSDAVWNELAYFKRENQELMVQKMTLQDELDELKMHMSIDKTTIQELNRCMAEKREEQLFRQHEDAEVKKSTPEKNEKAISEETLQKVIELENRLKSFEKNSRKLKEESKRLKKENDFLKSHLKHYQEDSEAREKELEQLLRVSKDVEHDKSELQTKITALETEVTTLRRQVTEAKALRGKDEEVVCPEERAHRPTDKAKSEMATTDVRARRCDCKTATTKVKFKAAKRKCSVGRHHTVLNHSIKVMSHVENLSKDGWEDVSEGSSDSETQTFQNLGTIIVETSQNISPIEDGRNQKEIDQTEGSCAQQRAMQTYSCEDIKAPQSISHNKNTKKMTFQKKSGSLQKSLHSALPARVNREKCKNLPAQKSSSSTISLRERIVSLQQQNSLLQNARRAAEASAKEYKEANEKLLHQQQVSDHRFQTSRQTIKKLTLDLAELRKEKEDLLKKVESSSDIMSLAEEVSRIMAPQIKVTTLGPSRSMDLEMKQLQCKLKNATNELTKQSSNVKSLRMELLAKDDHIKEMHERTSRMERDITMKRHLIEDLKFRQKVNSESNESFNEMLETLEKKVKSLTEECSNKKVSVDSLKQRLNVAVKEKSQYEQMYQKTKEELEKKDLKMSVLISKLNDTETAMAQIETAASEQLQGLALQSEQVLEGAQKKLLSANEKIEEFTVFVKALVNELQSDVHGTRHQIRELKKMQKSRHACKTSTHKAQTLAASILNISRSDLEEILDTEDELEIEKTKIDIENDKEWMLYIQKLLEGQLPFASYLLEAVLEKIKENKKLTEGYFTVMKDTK

B1: MBP-CENTLEIN 971–1396aa (domain or fragment, UniProt A2AM05 971-1396)
chain: STISLRERIVSLQQQNSLLQNARRAAEASAKEYKEANEKLLHQQQVSDHRFQTSRQTIKKLTLDLAELRKEKEDLLKKVESSSDIMSLAEEVSRIMAPQIKVTTLGPSRSMDLEMKQLQCKLKNATNELTKQSSNVKSLRMELLAKDDHIKEMHERTSRMERDITMKRHLIEDLKFRQKVNSESNESFNEMLETLEKKVKSLTEECSNKKVSVDSLKQRLNVAVKEKSQYEQMYQKTKEELEKKDLKMSVLISKLNDTETAMAQIETAASEQLQGLALQSEQVLEGAQKKLLSANEKIEEFTVFVKALVNELQSDVHGTRHQIRELKKMQKSRHACKTSTHKAQTLAASILNISRSDLEEILDTEDELEIEKTKIDIENDKEWMLYIQKLLEGQLPFASYLLEAVLEKIKENKKLTEGYFTVMKDT
In the case of B1, the binding [1] is reported as “binds”.

B2: MBP-CENTLEIN 601–970aa (domain or fragment, UniProt A2AM05 601-970)
chain: SDAVWNELAYFKRENQELMVQKMTLQDELDELKMHMSIDKTTIQELNRCMAEKREEQLFRQHEDAEVKKSTPEKNEKAISEETLQKVIELENRLKSFEKNSRKLKEESKRLKKENDFLKSHLKHYQEDSEAREKELEQLLRVSKDVEHDKSELQTKITALETEVTTLRRQVTEAKALRGKDEEVVCPEERAHRPTDKAKSEMATTDVRARRCDCKTATTKVKFKAAKRKCSVGRHHTVLNHSIKVMSHVENLSKDGWEDVSEGSSDSETQTFQNLGTIIVETSQNISPIEDGRNQKEIDQTEGSCAQQRAMQTYSCEDIKAPQSISHNKNTKKMTFQKKSGSLQKSLHSALPARVNREKCKNLPAQKSSS
For B2, the binding [2] was “binds”.

B3: GFP-tagged PMFBP1 (protein, UniProt Q9WVQ0 1-1022)
chain: MLKLKGELRTAKGLKNEAGERDRDVSNLNSKLLSLQLDIKNLHDVCKRQGKTLQENQLCVEEAMLKANHNKKQAQTLVFTDNQMDFRVNKQYHLRQLQQLKKKLLTLQQELEFRTQELQASYCSLLQYQSILEKQTSDLLVLHRHCKLKEDEVILYEEEMGNHSKSTGEKLHLAQEQLALAGDKILSLERSLNLYRDKYQTSLSNIELLECQVKMLEGELSGLIGQDPENKGDHPKVRIYTSPCVIQEHQETLKRLSEVWQKVSEQDDLIQELRNKLACSNSLVLEREEALIKLQAEFASYTATHRHPPTSSEDCEDITKILKHLQEQKDSQCLHVEEYQNLVKDLRMELEAVSEQKKKIMKDMMKLELDLHGLREETSCVIEKKDKETVFLQYRLQDLQQQYTESQKLSLKKDKLLQDKDERLHELEKNLMQVQNSLREKEAELEKLQCTTKELDTSLQEARQSTSKIDCEALRAEIQKLKDSLEEAREQLKVSDQNLTQSKEEAHLSASSLEDAHRKIENCLLQDKQKEEVIKDLQSQLHKLQKESSKIEEERKHNRQRLQELSSELSEGQRRLSNAEKEKSLLQKTLDEDEKKIDELFHSTQVSEQKQRELTNSIRKLEEELLEIKGLLEEKREQLKKSKEQEKALEEEIEALRQEAKRKEKMAKEHLRKLDEEKENLQAELTSRSSHLDSSLNKYNSSQKVIQELNAEIARQKDSIMILQTQLDSAIQKEKNCFQNMVSKEAYEELVRKSGNCQDDLTQALEKLTQATSETKSLNRSLQQTQERKAQLEDEIAAYEERMKKLNMELKKLQGFQQQSEQEVHNFDKKLEEMSNQVLQWQRQHQSDLKMLAAKESQLREFQEEMATLRESLLADEKEPYSPPAKLTPKETCRHHRENDQIMNNVEQWAKEQKIANEKLGNKLREQVKYIAKLTGEKDHLHNVMVHLQQENKKLKNEIEEKKLKAGNPRICVKAFPPNKLEPSQKGKLCCALGWRGIPQDLTPKTDHKYMGLPHSSGSSYC
For B3, the binding [3] was “binds”.
